# The other results are listed elsewhere or left out.
# B1: Gal 3 (Homo sapiens), P17931 (protein)
# chain: MADNFSLHDALSGSGNPNPQGWPGAWGNQPAGAGGYPGASYPGAYPGQAPPGAYPGQAPPGAYHGAPGAYPGAPAPGVYPGPPSGPGAYPSSGQPSAPGAYPATGPYGAPAGPLIVPYNLPLPGGVVPRMLITILGTVKPNANSILDFQRGNDVAFHFNPRFNENNRRVIVCNTKLDNNWGREERQSVFPFESGKPFKIQVLVEPDHFKVAVNDAHLLQYNHRVKKLNEISKLGISGDIDLTSASYTMI
# Columns and labels:
# Assay in all cases: glycan array binding signal (z-score within array); higher = stronger binding
# Conditions in all cases: glycan notation: IUPAC condensed, linker removed; mutation: R144S
# [1] = target: Gal(b1-3)GalNAc(a1-3)[Fuc(a1-2)]Gal(b1-4)GlcNAc
# Outline: (§1)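 The Consortium for Functional Glycomics database supplied 3228 glycan arrays, of which those lacking an available protein sequence were dropped. The binding signal, a within-array Z-score, was averaged across arrays of the same protein sequence and across linkers. Negative scores can be read as non-binding.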
# [2] = target: Gal(b1-3)GalNAc(b1-3)Gal(a1-4)Gal(b1-4)Glc
# Outline: as §1
# [3] = target: Gal(b1-3)GalNAc(b1-4)Gal(b1-4)Glc
# Outline: as §1
# [4] = target: Gal(b1-3)GalNAc(b1-4)[Neu5Ac(a2-3)]Gal(b1-4)Glc
# Outline: as §1
# Gal(b1-3)GlcNAc = target: Gal(b1-3)GlcNAc
# Outline: as §1
# [5] = target: Gal(b1-3)GlcNAc(a1-6)Gal(b1-4)GlcNAc
# Outline: as §1
# [6] = target: Gal(b1-3)GlcNAc(b1-2)Man(a1-3)[Gal(b1-3)GlcNAc(b1-2)Man(a1-6)]Man(b1-4)GlcNAc(b1-4)GlcNAc
# Outline: as §1
# [7] = target: Gal(b1-3)GlcNAc(b1-2)Man(a1-3)[Gal(b1-3)GlcNAc(b1-2)Man(a1-6)]Man(b1-4)GlcNAc(b1-4)[Fuc(a1-6)]GlcNAc
# Outline: as §1
# [8] = target: Gal(b1-3)GlcNAc(b1-3)Gal(b1-3)GlcNAc
# Outline: as §1
# [9] = target: Gal(b1-3)GlcNAc(b1-3)Gal(b1-4)Glc
# Outline: as §1
# [10] = target: Gal(b1-3)GlcNAc(b1-3)Gal(b1-4)GlcNAc
# Outline: as §1
# [11] = target: Gal(b1-3)GlcNAc(b1-3)Gal(b1-4)GlcNAc(b1-6)[Gal(b1-3)GlcNAc(b1-3)]Gal(b1-4)Glc
# Outline: as §1
# [12] = target: Gal(b1-3)GlcNAc(b1-3)Gal(b1-4)[Fuc(a1-3)]GlcNAc(b1-6)[Gal(b1-3)GlcNAc(b1-3)]Gal(b1-4)Glc
# Outline: as §1
# [13] = target: Gal(b1-3)GlcNAc(b1-3)GalNAc
# Outline: as §1
# [14] = target: Gal(b1-3)GlcNAc(b1-6)Gal(b1-4)GlcNAc
# Outline: as §1
# [15] = target: Gal(b1-3)[Fuc(a1-4)]GlcNAc
# Outline: as §1
# [16] = target: Gal(b1-3)[Fuc(a1-4)]GlcNAc(b1-2)Man(a1-3)[Gal(b1-3)[Fuc(a1-4)]GlcNAc(b1-2)Man(a1-6)]Man(b1-4)GlcNAc(b1-4)GlcNAc
# Outline: as §1
# [17] = target: Gal(b1-3)[Fuc(a1-4)]GlcNAc(b1-2)Man(a1-3)[Gal(b1-3)[Fuc(a1-4)]GlcNAc(b1-2)Man(a1-6)]Man(b1-4)GlcNAc(b1-4)[Fuc(a1-6)]GlcNAc
# Outline: as §1
# [18] = target: Gal(b1-3)[Fuc(a1-4)]GlcNAc(b1-3)Gal(b1-3)[Fuc(a1-4)]GlcNAc
# Outline: as §1
# [19] = target: Gal(b1-3)[Fuc(a1-4)]GlcNAc(b1-3)Gal(b1-4)GlcNAc
# Outline: as §1
# [20] = target: Gal(b1-3)[Fuc(a1-4)]GlcNAc(b1-3)Gal(b1-4)[Fuc(a1-3)]GlcNAc
# Outline: as §1
# [21] = target: Gal(b1-3)[GlcNAc(b1-6)]GalNAc
# Outline: as §1
# [22] = target: Gal(b1-3)[Neu5Ac(a2-6)]GalNAc
# Outline: as §1
# [23] = target: Gal(b1-3)[Neu5Ac(a2-6)]GlcNAc(b1-6)Gal(b1-4)Glc
# Outline: as §1
# [24] = target: Gal(b1-3)[Neu5Ac(b2-6)]GalNAc
# Outline: as §1
# [25] = target: Gal(b1-4)GalNAc(a1-3)[Fuc(a1-2)]Gal(b1-4)GlcNAc
# Outline: as §1
# [26] = target: Gal(b1-4)GalNAc(b1-3)[Fuc(a1-2)]Gal(b1-4)GlcNAc
# Outline: as §1
# Gal(b1-4)Glc = target: Gal(b1-4)Glc
# Outline: as §1
# Gal(b1-4)Glc6S = target: Gal(b1-4)Glc6S
# Outline: as §1
# Gal(b1-4)GlcNAc = target: Gal(b1-4)GlcNAc
# Outline: as §1
# [27] = target: Gal(b1-4)GlcNAc(a1-6)Gal(b1-4)GlcNAc
# Outline: as §1
# [28] = target: Gal(b1-4)GlcNAc(b1-2)Man(a1-3)Man(b1-4)GlcNAc(b1-4)GlcNAc
# Outline: as §1
# [29] = target: Gal(b1-4)GlcNAc(b1-2)Man(a1-3)[Gal(b1-4)GlcNAc(b1-2)Man(a1-6)]Man(b1-4)GlcNAc(b1-4)GlcNAc
# Outline: as §1
# [30] = target: Gal(b1-4)GlcNAc(b1-2)Man(a1-3)[Gal(b1-4)GlcNAc(b1-2)Man(a1-6)]Man(b1-4)GlcNAc(b1-4)[Fuc(a1-6)]GlcNAc
# Outline: as §1
# [31] = target: Gal(b1-4)GlcNAc(b1-2)Man(a1-3)[GlcNAc(b1-2)Man(a1-6)]Man(b1-4)GlcNAc(b1-4)GlcNAc
# Outline: as §1
# [32] = target: Gal(b1-4)GlcNAc(b1-2)Man(a1-3)[Man(a1-6)]Man(b1-4)GlcNAc(b1-4)GlcNAc
# Outline: as §1
# [33] = target: Gal(b1-4)GlcNAc(b1-2)Man(a1-6)Man(b1-4)GlcNAc(b1-4)GlcNAc
# Outline: as §1
# [34] = target: Gal(b1-4)GlcNAc(b1-2)Man(a1-6)[GlcNAc(b1-2)Man(a1-3)]Man(b1-4)GlcNAc(b1-4)GlcNAc
# Outline: as §1
# [35] = target: Gal(b1-4)GlcNAc(b1-2)Man(a1-6)[Man(a1-3)]Man(b1-4)GlcNAc(b1-4)GlcNAc
# Outline: as §1
# [36] = target: Gal(b1-4)GlcNAc(b1-2)[Gal(b1-4)GlcNAc(b1-4)]Man(a1-3)[Gal(b1-4)GlcNAc(b1-2)Man(a1-6)]Man(b1-4)GlcNAc(b1-4)GlcNAc
# Outline: as §1
# [37] = target: Gal(b1-4)GlcNAc(b1-2)[Gal(b1-4)GlcNAc(b1-4)]Man(a1-3)[Gal(b1-4)GlcNAc(b1-2)[Gal(b1-4)GlcNAc(b1-6)]Man(a1-6)]Man(b1-4)GlcNAc(b1-4)GlcNAc
# Outline: as §1
# [38] = target: Gal(b1-4)GlcNAc(b1-3)Gal(b1-3)GlcNAc
# Outline: as §1
# [39] = target: Gal(b1-4)GlcNAc(b1-3)Gal(b1-4)Glc
# Outline: as §1
# [40] = target: Gal(b1-4)GlcNAc(b1-3)Gal(b1-4)GlcNAc
# Outline: as §1
# [41] = target: Gal(b1-4)GlcNAc(b1-3)Gal(b1-4)GlcNAc(b1-3)Gal(b1-4)GlcNAc
# Outline: as §1
binder,measurement,setting,value
B1,glycan array binding signal (z-score),[1],4.94
same,glycan array binding signal (z-score),[2],-0.358
same,glycan array binding signal (z-score),[3],-0.354
same,glycan array binding signal (z-score),[4],-0.362
same,glycan array binding signal (z-score),Gal(b1-3)GlcNAc,-0.219
same,glycan array binding signal (z-score),[5],-0.356
same,glycan array binding signal (z-score),[6],0.579
same,glycan array binding signal (z-score),[7],0.151
same,glycan array binding signal (z-score),[8],0.334
same,glycan array binding signal (z-score),[9],0.562
same,glycan array binding signal (z-score),[10],0.9
same,glycan array binding signal (z-score),[11],0.34
same,glycan array binding signal (z-score),[12],1.36
same,glycan array binding signal (z-score),[13],-0.361
same,glycan array binding signal (z-score),[14],-0.205
same,glycan array binding signal (z-score),[15],-0.355
same,glycan array binding signal (z-score),[16],-0.346
same,glycan array binding signal (z-score),[17],-0.349
same,glycan array binding signal (z-score),[18],-0.362
same,glycan array binding signal (z-score),[19],0.027
same,glycan array binding signal (z-score),[20],-0.357
same,glycan array binding signal (z-score),[21],-0.36
same,glycan array binding signal (z-score),[22],-0.352
same,glycan array binding signal (z-score),[23],-0.358
same,glycan array binding signal (z-score),[24],-0.347
same,glycan array binding signal (z-score),[25],5.09
same,glycan array binding signal (z-score),[26],-0.357
same,glycan array binding signal (z-score),Gal(b1-4)Glc,-0.362
same,glycan array binding signal (z-score),Gal(b1-4)Glc6S,-0.357
same,glycan array binding signal (z-score),Gal(b1-4)GlcNAc,-0.346
same,glycan array binding signal (z-score),[27],-0.019
same,glycan array binding signal (z-score),[28],0.468
same,glycan array binding signal (z-score),[29],0.995
same,glycan array binding signal (z-score),[30],0.5
same,glycan array binding signal (z-score),[31],0.483
same,glycan array binding signal (z-score),[32],0.359
same,glycan array binding signal (z-score),[33],-0.102
same,glycan array binding signal (z-score),[34],0.266
same,glycan array binding signal (z-score),[35],-0.207
same,glycan array binding signal (z-score),[36],1.12
same,glycan array binding signal (z-score),[37],2.24
same,glycan array binding signal (z-score),[38],1.08
same,glycan array binding signal (z-score),[39],0.743
same,glycan array binding signal (z-score),[40],1.08
same,glycan array binding signal (z-score),[41],2.54

# Source: the supplement of paper PMC8728848
